Assay results published in publication PMC6212790.
The list shows a part of the results. At the low end of the ranking, values are background and their order means little.

Target: T1, GST-Rok-C97-191 (UniProt O34857)
T1 sequence: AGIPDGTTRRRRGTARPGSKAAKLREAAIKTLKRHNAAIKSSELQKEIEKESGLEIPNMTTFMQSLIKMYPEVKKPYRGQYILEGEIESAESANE
Assay: protein binding microarray;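 further: rank score from −0.5 (least bound) to 0.5 (best bound)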
Conditions: Rok is a gene silencer of Bacillus subtilis; high values mean tight binding; most listed sequences are background and not binding sites; double strand, one strand shown

| Sequence | binding signal |
| --- | --- |
| AAAGTATG | 0.249 E-score |
| AAGTTATA | 0.24 E-score |
| AGCTTGCA | 0.00305 E-score |
| TAGGCTGA | 0.0315 E-score |
| CGCATTGA | -0.107 E-score |
| GGCTAGGA | -0.0824 E-score |
| TCAAACAA | 0.0983 E-score |
| AGCCGGCT | -0.277 E-score |
| GACTGCAA | -0.111 E-score |
| ATTATGGA | 0.0104 E-score |
| ACTTAGTG | 0.228 E-score |
| CAGGGAAA | -0.128 E-score |
| CATACCGC | -0.147 E-score |
| ATCAGGGA | -0.142 E-score |
| CTATAAAC | 0.291 E-score |
| GTCAGGGA | -0.345 E-score |
| ATAGTCTC | 0.128 E-score |
| AGTACCTC | 0.0552 E-score |
| AGTAGGAC | -0.0484 E-score |
| TCAGGTAA | 0.00776 E-score |
| AATCAGCG | -0.104 E-score |
| ACTTTTCC | -0.0516 E-score |
| AGCGAGAG | -0.195 E-score |
| CCACCGGG | -0.318 E-score |
| ACTATAGA | 0.241 E-score |

| Sequence | binding signal |
| --- | --- |
| CTTCGAAC | -0.152 E-score |
| AGCTTGAA | 0.0643 E-score |
| GAGGTATC | 0.108 E-score |
| CAGCCGCC | -0.398 E-score |
| CACCTCCC | -0.195 E-score |
| AAAATCGA | 0.156 E-score |
| AGCTTGGC | -0.199 E-score |
| ATAATTAT | 0.137 E-score |
| CGATAGCA | 0.043 E-score |
| AGACTCAG | -0.277 E-score |
| AAACAGTG | -0.00365 E-score |
| GGGAATAA | 0.0439 E-score |
| ATTGTACG | 0.142 E-score |
| ATCAGTGA | -0.127 E-score |
| AACAGATG | -0.05 E-score |
| CGGGTGAA | -0.0151 E-score |
| ACCGAGAC | -0.149 E-score |
| GTTCTGTA | 0.203 E-score |
| GCGGTATA | 0.295 E-score |
| AGGCCGTA | -0.098 E-score |
| CAGGGCAC | -0.215 E-score |
| AAGGAGAG | -0.144 E-score |
| ATCATACC | 0.205 E-score |
| ACATCGTA | 0.0718 E-score |
| AAAACGAC | -0.0977 E-score |

| Sequence | binding signal |
| --- | --- |
| TAGCCTGA | -0.0404 E-score |
| GAAAATTA | 0.254 E-score |
| GAACAAAA | 0.0133 E-score |
| GTGCGTTA | -0.0744 E-score |
| AAAGTAAT | 0.144 E-score |
| ATTCGCCC | -0.192 E-score |
| GAGATAGA | 0.15 E-score |
| CGGACACA | 0.0621 E-score |
| CGGGGACG | -0.179 E-score |
| CCTAAGAC | -0.0994 E-score |
| AATTGGAC | 0.107 E-score |
| CCCAAAGA | -0.215 E-score |
| TAAGAAAA | 0.151 E-score |
| GAACCCGC | -0.154 E-score |
| CAATTCCA | 0.12 E-score |
| CAGCCACC | -0.211 E-score |
| AGTAGCGG | 0.238 E-score |
| ACGAAGAA | -0.0377 E-score |
| ATATGGGC | -0.15 E-score |
| GACACCGC | -0.363 E-score |
| GGAAGCTA | 0.242 E-score |
| GATCGAGA | -0.044 E-score |
| ACGCTAGT | 0.14 E-score |
| ACACCGTA | 0.0572 E-score |
| CAGTAGGG | 0.0282 E-score |

| Sequence | binding signal |
| --- | --- |
| ATAATTCC | 0.215 E-score |
| CTTGCTCA | 0.0296 E-score |
| AATTATTA | 0.3 E-score |
| GAGAGCTA | 0.101 E-score |
| GCATTCAC | 0.0171 E-score |
| GAGCGAAC | -0.207 E-score |
| CCAAGCGG | -0.177 E-score |
| CAAGTTCC | -0.056 E-score |
| AAGCATGA | -0.0477 E-score |
| TATGGCGA | -0.137 E-score |
| AGATAATG | 0.273 E-score |
| GTACGTGA | 0.154 E-score |
| CGTTTGAG | 0.0202 E-score |
| ACGAGTTG | 0.0372 E-score |
| CATGTATC | 0.232 E-score |
| GTAGTCAA | 0.205 E-score |
| CCCTAAGC | -0.217 E-score |
| CGCGTTAG | -0.0711 E-score |
| GCACATTA | 0.133 E-score |
| AACCGTCC | -0.146 E-score |
| AGAGTGTG | -0.227 E-score |
| TCCACACA | -0.0316 E-score |
| AGGCCTGC | -0.304 E-score |
| CGTTGCAG | -0.113 E-score |
| ACGCCTAC | 0.1 E-score |

| Sequence | binding signal |
| --- | --- |
| ATACGCAG | 0.0903 E-score |
| ACTGGCGG | -0.16 E-score |
| CGAATGGC | -0.0846 E-score |
| AGCCATCA | -0.0573 E-score |
| AGGTCTTC | -0.124 E-score |
| ACTCTATC | 0.15 E-score |
| AGAATATA | 0.231 E-score |
| GCCAGGAA | -0.127 E-score |
| AACTTGCA | 0.161 E-score |
| AAAGACAT | -0.151 E-score |
| ACCCCCGT | -0.19 E-score |
| GCACTTAA | 0.0199 E-score |
| AACTCACC | -0.0323 E-score |
| GGCGGAGA | -0.286 E-score |
| ATTGGTGA | -0.176 E-score |
| ATAATCCA | 0.137 E-score |
| CAAGGCTG | -0.146 E-score |
| CGGAACAA | -0.019 E-score |
| GCTGGGAC | -0.266 E-score |
| AAACGAAG | 0.00465 E-score |
| CTTTGGGA | -0.248 E-score |
| TCCGTGCA | -0.0308 E-score |
| CATGGTTC | 0.0199 E-score |
| GCCATCGA | -0.12 E-score |
| CTATGGAG | 0.0321 E-score |

| Sequence | binding signal |
| --- | --- |
| ATCGCAAC | 0.0155 E-score |
| ATGCTCGG | 0.0326 E-score |
| CGGGCATC | -0.151 E-score |
| AACAAACC | -0.151 E-score |
| GATCCGCA | -0.179 E-score |
| GATCAGGA | -0.0408 E-score |
| CGAGCTCC | -0.209 E-score |
| CTTAAAAA | -0.0124 E-score |
| TGGCGACA | -0.211 E-score |
| ACCAACCC | -0.0889 E-score |
| AGGAGCTC | 0.0384 E-score |
| CTGACCTA | 0.0445 E-score |
| CAACCCGC | -0.137 E-score |
| TGAAAACA | -0.0599 E-score |
| CCACCGAC | -0.0637 E-score |
| CCACCTCC | -0.199 E-score |
| GGTCGACA | -0.101 E-score |
| GAAAAGTC | -0.0348 E-score |
| CCCAACAC | -0.159 E-score |
| CGATCACC | -0.0971 E-score |
| AGTATACT | 0.321 E-score |
| CCTTGGAA | -0.0362 E-score |
| GATTCTCA | 0.131 E-score |
| AGGCAGTC | -0.171 E-score |
| TCTCGAAA | -0.00488 E-score |

| Sequence | binding signal |
| --- | --- |
| GATATGAA | 0.0589 E-score |
| AGCCCCTG | -0.213 E-score |
| CGACGATA | 0.153 E-score |
| TAGACGGA | -0.313 E-score |
| CTGGGCGC | -0.28 E-score |
| AGGAGAAT | 0.162 E-score |
| AAAGCAGG | -0.211 E-score |
| ACCTCTTC | -0.147 E-score |
| CCTAATCG | -0.143 E-score |
| ATTCTGAG | 0.126 E-score |
| GCTGGCTA | -0.0491 E-score |
| GGCATCCC | -0.237 E-score |
| GACGTCTC | -0.169 E-score |
| ATCATCAA | -0.0196 E-score |
| ATCGCCTA | -0.0143 E-score |
| AACAAATG | 0.11 E-score |
| ACCGGTAC | 0.156 E-score |
| GGACGTCC | -0.0863 E-score |
| AAATCTGT | 0.141 E-score |
| GAAGTCAC | 0.043 E-score |
| GGGGGGCA | -0.354 E-score |
| CGTATTGA | 0.179 E-score |
